{"source": "the RNAGym collection of RNA variant scans (doi:10.1073/pnas.2313332121)", "parents": {"B1": {"name": "TPR 5TU (parent)", "chain": "GGAUCUUCUCGAUCUAACAAAAAAGACAAAUCUGCCACAAAGCUUGAGAGCAUCUUCGGAUGCAGAGGCGGCAGCCUUCGGUGGCGCGAUAGCGCCAACGUUCUCAACUAUGACACGCAAAACGCGUGCUCCGUUGAAUGGAGUUUAUCAUG"}}, "note": "Variants at the floor of the assay are shown more often than the library holds them."}
{"variants_of": "B1", "experiment": "polymerase ribozyme fitness, log enrichment relative to wild type (log ratio); higher = more active; in vitro selection for triplet polymerase activity", "in_short": "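One round of in vitro selection, in triplicate, was applied to PCR-built, transcribed mutant libraries of each subunit of a heterodimeric triplet polymerase ribozyme. The steps were annealing with a biotinylated primer, partner subunit and triplets, incubation frozen at −7 °C, gel excision of extended constructs, streptavidin-bead capture and RT-PCR. Fitness is the logarithm, base 2, of genotype enrichment over wild-type enrichment from inverse-variance-weighted replicate averages of Illumina-sequenced inputs and outputs, keeping genotypes with ≥10 input reads and ≥1 read per output.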"}
{"variant": "U4A G48A C85A C93A A147C", "polymerase ribozyme fitness (log ratio)": "≤ -4.2"}
{"variant": "U4A C5G A20U C51U C54G A142G U146A C149G", "polymerase ribozyme fitness (log ratio)": "≤ -4.2"}
{"variant": "A3U U13G A20U G74C", "polymerase ribozyme fitness (log ratio)": "≤ -4.2"}
{"variant": "U4G C5A A17C U77C C85U A121C U144A A150C", "polymerase ribozyme fitness (log ratio)": "≤ -4.2"}
{"variant": "U4G U7C A16G C96G", "polymerase ribozyme fitness (log ratio)": -2.73}
{"variant": "U4G C5G A28C G46U C108G C129G", "polymerase ribozyme fitness (log ratio)": "≤ -4.2"}
{"variant": "C5A A12G C27U C93U G94C G141A", "polymerase ribozyme fitness (log ratio)": "≤ -4.2"}
{"variant": "U4A U7G A23U A28U U53A U82A G92A A120G", "polymerase ribozyme fitness (log ratio)": "≤ -4.2"}
{"variant": "U4A C5U C32A C54U G58A A73G G84A A91G A121U C125U U145C U146C", "polymerase ribozyme fitness (log ratio)": "≤ -4.2"}
{"variant": "U4A U13A U78C G94U C116G U151A", "polymerase ribozyme fitness (log ratio)": "≤ -4.2"}
{"variant": "C5A A16U G46C G84U A91G U109C A115U G136C", "polymerase ribozyme fitness (log ratio)": "≤ -4.2"}
{"variant": "U4C A52U U82G C96A", "polymerase ribozyme fitness (log ratio)": -3.56}
{"variant": "C5A A16C G50A C76U G86C U144G", "polymerase ribozyme fitness (log ratio)": "≤ -4.2"}
{"variant": "U4G A21C A28C G81U C95U G136A", "polymerase ribozyme fitness (log ratio)": "≤ -4.2"}
{"variant": "U4G G94A A115U U151G", "polymerase ribozyme fitness (log ratio)": "≤ -4.2"}
{"variant": "U4G A16U C38U G59U G67C C108U A121U C132G", "polymerase ribozyme fitness (log ratio)": "≤ -4.2"}
{"variant": "U4A A12G A20U U44G A52G U55A G94C", "polymerase ribozyme fitness (log ratio)": "≤ -4.2"}
{"variant": "U4C C14U G42A G84A C105G", "polymerase ribozyme fitness (log ratio)": "≤ -4.2"}
{"variant": "U4G A49U C51G A120U A121G", "polymerase ribozyme fitness (log ratio)": "≤ -4.2"}
{"variant": "U4A C32U A40U G59U A60U U61G G68A C72G C87U G94C C95U", "polymerase ribozyme fitness (log ratio)": "≤ -4.2"}
{"variant": "C5A", "polymerase ribozyme fitness (log ratio)": 0.273}
{"variant": "C5A A19G A24U G88U C108G", "polymerase ribozyme fitness (log ratio)": "≤ -4.2"}
{"variant": "U4A A40G C85G U90G C99U U109G", "polymerase ribozyme fitness (log ratio)": "≤ -4.2"}
{"variant": "A3U U82G", "polymerase ribozyme fitness (log ratio)": -0.249}
{"variant": "U4A C35A C85A A138C G143C U146A G152A", "polymerase ribozyme fitness (log ratio)": "≤ -4.2"}
{"variant": "U4A C54U U56A C79G C85U C103G C116U G143C", "polymerase ribozyme fitness (log ratio)": "≤ -4.2"}
{"variant": "U4A A29U G46C G58C C69G C87U C118U", "polymerase ribozyme fitness (log ratio)": "≤ -4.2"}
{"variant": "U4A A19U A30U C75U G94C", "polymerase ribozyme fitness (log ratio)": "≤ -4.2"}
{"variant": "U4A C38U C57A A66G C96G C105A C123G G124A C129G", "polymerase ribozyme fitness (log ratio)": "≤ -4.2"}
{"variant": "U4C C5U A39U G50C G67A A73G C85A G94A", "polymerase ribozyme fitness (log ratio)": "≤ -4.2"}
{"variant": "A3U U56A A73G C85G G86A", "polymerase ribozyme fitness (log ratio)": "≤ -4.2"}
{"variant": "U4G C131G", "polymerase ribozyme fitness (log ratio)": "≤ -4.2"}
{"variant": "U4C U9A A17G A47C A52C G68C A73U G80A C85G G94A U102G A106G A107C U109G U145A", "polymerase ribozyme fitness (log ratio)": "≤ -4.2"}
{"variant": "U4C U33G C36U A40C C51U C93U U134A A147C", "polymerase ribozyme fitness (log ratio)": "≤ -4.2"}
{"variant": "U4C C93A U151G", "polymerase ribozyme fitness (log ratio)": "≤ -4.2"}
{"variant": "C5A A16U C36G C43U U56A G94C C103U C105G C114G A119C", "polymerase ribozyme fitness (log ratio)": "≤ -4.2"}
{"variant": "U4A U44A G50C G67A G92U C96G A147U", "polymerase ribozyme fitness (log ratio)": "≤ -4.2"}
{"variant": "A3U U55A G59A G80C C87A U102C C118G", "polymerase ribozyme fitness (log ratio)": "≤ -4.2"}
{"variant": "U4G A19G A73C C87U A138U", "polymerase ribozyme fitness (log ratio)": "≤ -4.2"}
{"variant": "U4C U53A A66G C69U G83U G94C", "polymerase ribozyme fitness (log ratio)": "≤ -4.2"}
{"variant": "U4A U7A U55A U61A C76A G94A", "polymerase ribozyme fitness (log ratio)": "≤ -4.2"}
{"variant": "U4C G74A", "polymerase ribozyme fitness (log ratio)": -3.29}
{"variant": "U4C C38U U55G C87A A106G", "polymerase ribozyme fitness (log ratio)": "≤ -4.2"}
{"variant": "U4A A17C G94A C149U", "polymerase ribozyme fitness (log ratio)": -1.61}
{"variant": "U4G A22C A24U A26G U78G G81C C87G", "polymerase ribozyme fitness (log ratio)": "≤ -4.2"}
{"variant": "U4G U15A A28U G83U C87U U102G", "polymerase ribozyme fitness (log ratio)": "≤ -4.2"}
{"variant": "U4A A24U C57A C93U G94U G141U", "polymerase ribozyme fitness (log ratio)": -2.67}
{"variant": "U4G A19G A28C G80C U82C U101A C105G A106U G126A G140C", "polymerase ribozyme fitness (log ratio)": "≤ -4.2"}
{"variant": "U4G A64U C93G U148A", "polymerase ribozyme fitness (log ratio)": "≤ -4.2"}
{"variant": "U4G A21G A47C A52G G88C A98U A107C G136C U144C", "polymerase ribozyme fitness (log ratio)": "≤ -4.2"}
{"variant": "U4G U53C G88A A97C A121U", "polymerase ribozyme fitness (log ratio)": "≤ -4.2"}
{"variant": "U4A A91G C114G G124A", "polymerase ribozyme fitness (log ratio)": "≤ -4.2"}
{"variant": "U4G G48U G84A C93A G133A G141C", "polymerase ribozyme fitness (log ratio)": "≤ -4.2"}
{"variant": "U4A C36A G48C G86A", "polymerase ribozyme fitness (log ratio)": "≤ -4.2"}
{"variant": "U4C A19G G34C A52C U56A C87A G133C", "polymerase ribozyme fitness (log ratio)": "≤ -4.2"}
{"variant": "U4G A16C A28U C38U U55A C75G U111C A122U A142C", "polymerase ribozyme fitness (log ratio)": "≤ -4.2"}
{"variant": "U4G G84A C87U A106C G141A U144G", "polymerase ribozyme fitness (log ratio)": "≤ -4.2"}
{"variant": "U4A U56A A66G C85A U144C", "polymerase ribozyme fitness (log ratio)": "≤ -4.2"}
{"variant": "U4A G11C A41U G50C G58A G59U U82C C87U G92U G140A", "polymerase ribozyme fitness (log ratio)": "≤ -4.2"}
{"variant": "U4G G58A", "polymerase ribozyme fitness (log ratio)": 0.794}
{"variant": "U4G C10U G83U A98U C105U", "polymerase ribozyme fitness (log ratio)": -0.982}
{"variant": "U4A A20G A37U C95G A107U A115G C123A U135C", "polymerase ribozyme fitness (log ratio)": "≤ -4.2"}
{"variant": "U4A A23U A37C G46C A47G G62A C116G A138G U139A U148A A150C", "polymerase ribozyme fitness (log ratio)": "≤ -4.2"}
{"variant": "U4G A21C C96G U139G G140U C149A", "polymerase ribozyme fitness (log ratio)": "≤ -4.2"}
{"variant": "U4C G11C G100A A120C", "polymerase ribozyme fitness (log ratio)": "≤ -4.2"}
{"variant": "A3U U9C C85A G128C A137G A150U", "polymerase ribozyme fitness (log ratio)": "≤ -4.2"}
{"variant": "U4C G25U U61G G86U C93U G133C", "polymerase ribozyme fitness (log ratio)": "≤ -4.2"}
{"variant": "U4C A40G C43U C63A C87A C114A G124U", "polymerase ribozyme fitness (log ratio)": "≤ -4.2"}
{"variant": "U4A C57A C75G U134G", "polymerase ribozyme fitness (log ratio)": "≤ -4.2"}
{"variant": "U4A C57U A60C C76A G86A U102G C108G C118G A120U", "polymerase ribozyme fitness (log ratio)": "≤ -4.2"}
{"variant": "U4A C38U A41U G59A A137U", "polymerase ribozyme fitness (log ratio)": -4.07}
{"variant": "U4C G59A C63A A98U U148C", "polymerase ribozyme fitness (log ratio)": "≤ -4.2"}
{"variant": "U4G C35U C69A C87A C95A C103A C118G C131A", "polymerase ribozyme fitness (log ratio)": "≤ -4.2"}
{"variant": "U4C C85A", "polymerase ribozyme fitness (log ratio)": -1.34}
{"variant": "U4C A23G A37U G50C C105U", "polymerase ribozyme fitness (log ratio)": "≤ -4.2"}
{"variant": "U4A C36A A52C A73G C95U", "polymerase ribozyme fitness (log ratio)": "≤ -4.2"}
{"variant": "C5A A17U G83U C87G", "polymerase ribozyme fitness (log ratio)": "≤ -4.2"}
{"variant": "U4C A16U G48A A52C A66U C85U G88A A98U A137U", "polymerase ribozyme fitness (log ratio)": "≤ -4.2"}
{"variant": "U4C C69A C76A U109C", "polymerase ribozyme fitness (log ratio)": "≤ -4.2"}
{"variant": "U4A A29C C85U U134G G140C", "polymerase ribozyme fitness (log ratio)": "≤ -4.2"}
{"variant": "A3U U7C A16C U33G A89C G92U", "polymerase ribozyme fitness (log ratio)": "≤ -4.2"}
{"variant": "U4C C8A U15G A19U U55G C85A A137G", "polymerase ribozyme fitness (log ratio)": "≤ -4.2"}
{"variant": "U4C C10U A16C U90A A97U C116U", "polymerase ribozyme fitness (log ratio)": "≤ -4.2"}
